In the supplement of paper PMC9151546:
Many values rest on one well or one pass, so single values are uncertain.

How the values were obtained:
CHO-K1 [1] = experiment: relative survival (nuclei to bead ratio vs DMSO control) (% of vehicle control); higher = more surviving cells
Description: (§1)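 Flow-cytometric in vitro micronucleus assay (Litron MicroFlow) in CHO-K1 cells in 96-well plates, 19 concentrations (4.5-200 µM, n=1 per concentration). Without S9, cells were exposed for 24 h and sampled at 48 h. With Aroclor 1254-induced rat liver S9, cells were exposed for 3-4 h and sampled at 27-28 h. Read-outs are %MN and %hypodiploid nuclei relative to nucleated events, and relative survival as the nuclei-to-bead ratio versus the 1% DMSO vehicle control (x100).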

CHO-K1 [2] = experiment: micronucleus frequency (% of nucleated events); higher = more micronuclei (genotoxic)
CHO-K1 [3] = experiment: hypodiploid nuclei frequency (% of nucleated events); higher = more hypodiploid events (aneugenic)
Description: as §1
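Wherever hypodiploid nuclei frequency (% of nucleated events) is given: hypodiploid nuclei gated on a flow cytometer with 488 nm excitation after SYTOX Green staining, cultures at 37 °C, positive controls vinblastine without S9 and cyclophosphamide with S9.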
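Wherever micronucleus frequency (% of nucleated events) is given: cells lysed with nuclei stained by SYTOX Green, then micronucleus-gated events counted against nucleated events by flow cytometry with 488 nm excitation.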
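Wherever relative survival (nuclei to bead ratio vs DMSO control) is given: Lysed-cell nuclei stained with SYTOX Green and counted against counting beads by flow cytometry at 488 nm excitation, with vinblastine (no S9) and cyclophosphamide (plus S9) as positive controls.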

Cc1cc(O)ccc1Cl [4-Chloro-3-methylphenol]
Conditions	hypodiploid nuclei frequency, CHO-K1 [3] [%]	micronucleus frequency, CHO-K1 [2] [%]	relative survival, CHO-K1 [1]
concentration: 4.5 (µM), S9 metabolic activation: with S9, exposure time: 3-4 hours	0.14	1.36	109
concentration: 4.5 (µM), S9 metabolic activation: without S9, exposure time: 24 hours	0.48	1.38	105
concentration: 5.63 (µM), S9 metabolic activation: with S9, exposure time: 3-4 hours	0.34	1.5	117
concentration: 5.63 (µM), S9 metabolic activation: without S9, exposure time: 24 hours	0.66	1.26	117
concentration: 7.04 (µM), S9 metabolic activation: with S9, exposure time: 3-4 hours	0.34	1.34	121
concentration: 7.04 (µM), S9 metabolic activation: without S9, exposure time: 24 hours	0.88	1.34	115
concentration: 8.8 (µM), S9 metabolic activation: with S9, exposure time: 3-4 hours	0.22	1.42	115
concentration: 8.8 (µM), S9 metabolic activation: without S9, exposure time: 24 hours	0.66	1.14	119
concentration: 11 (µM), S9 metabolic activation: with S9, exposure time: 3-4 hours	0.12	1.14	105
concentration: 11 (µM), S9 metabolic activation: without S9, exposure time: 24 hours	0.58	0.92	116
concentration: 13.7 (µM), S9 metabolic activation: with S9, exposure time: 3-4 hours	0.22	1.36	117
concentration: 13.7 (µM), S9 metabolic activation: without S9, exposure time: 24 hours	0.88	2.02	100
concentration: 17.2 (µM), S9 metabolic activation: with S9, exposure time: 3-4 hours	0.24	1.12	98.8
concentration: 17.2 (µM), S9 metabolic activation: without S9, exposure time: 24 hours	0.74	1.62	107
concentration: 21.5 (µM), S9 metabolic activation: with S9, exposure time: 3-4 hours	0.14	1.52	92.8
concentration: 21.5 (µM), S9 metabolic activation: without S9, exposure time: 24 hours	0.78	1.54	98.1
concentration: 26.8 (µM), S9 metabolic activation: with S9, exposure time: 3-4 hours	0.24	2.22	100
concentration: 26.8 (µM), S9 metabolic activation: without S9, exposure time: 24 hours	0.68	1.66	113
concentration: 33.6 (µM), S9 metabolic activation: with S9, exposure time: 3-4 hours	0.44	4.1	90.8
concentration: 33.6 (µM), S9 metabolic activation: without S9, exposure time: 24 hours	0.78	1.38	147
concentration: 41.9 (µM), S9 metabolic activation: with S9, exposure time: 3-4 hours	0.56	4.12	68.7
concentration: 41.9 (µM), S9 metabolic activation: without S9, exposure time: 24 hours	1.16	1.76	104
concentration: 52.4 (µM), S9 metabolic activation: with S9, exposure time: 3-4 hours	0.36	3.52	52.3
concentration: 52.4 (µM), S9 metabolic activation: without S9, exposure time: 24 hours	1.1	1.74	114
concentration: 65.5 (µM), S9 metabolic activation: with S9, exposure time: 3-4 hours	0.38	2.56	58.7
concentration: 65.5 (µM), S9 metabolic activation: without S9, exposure time: 24 hours	1.54	2.1	97.6
concentration: 81.9 (µM), S9 metabolic activation: with S9, exposure time: 3-4 hours	0.44	2.15	46.5
concentration: 81.9 (µM), S9 metabolic activation: without S9, exposure time: 24 hours	1.36	2.04	100
concentration: 102 (µM), S9 metabolic activation: with S9, exposure time: 3-4 hours	0.2	2.32	49.4
concentration: 102 (µM), S9 metabolic activation: without S9, exposure time: 24 hours	2	2.24	94.3
concentration: 128 (µM), S9 metabolic activation: with S9, exposure time: 3-4 hours	0.38	2.61	47.2
concentration: 128 (µM), S9 metabolic activation: without S9, exposure time: 24 hours	2.58	3.1	74.7
concentration: 160 (µM), S9 metabolic activation: with S9, exposure time: 3-4 hours	0.54	2.5	46.5
concentration: 160 (µM), S9 metabolic activation: without S9, exposure time: 24 hours	2.8	2.82	78.5
concentration: 200 (µM), S9 metabolic activation: with S9, exposure time: 3-4 hours	0.42	2.24	51.4
concentration: 200 (µM), S9 metabolic activation: without S9, exposure time: 24 hours	3.06	4.14	68.5

CC(C)(c1ccccc1)c1ccc(O)cc1 [4-Cumylphenol]
Conditions	hypodiploid nuclei frequency, CHO-K1 [3] [%]	micronucleus frequency, CHO-K1 [2] [%]	relative survival, CHO-K1 [1]
concentration: 4.5 (µM), S9 metabolic activation: with S9, exposure time: 3-4 hours	0.28	1.38	90.8
concentration: 4.5 (µM), S9 metabolic activation: without S9, exposure time: 24 hours	0.72	1	107
concentration: 5.63 (µM), S9 metabolic activation: with S9, exposure time: 3-4 hours	0.24	0.84	108
concentration: 5.63 (µM), S9 metabolic activation: without S9, exposure time: 24 hours	0.6	0.88	119
concentration: 7.04 (µM), S9 metabolic activation: with S9, exposure time: 3-4 hours	0.12	1.18	107
concentration: 7.04 (µM), S9 metabolic activation: without S9, exposure time: 24 hours	0.74	1.22	99.6
concentration: 8.8 (µM), S9 metabolic activation: with S9, exposure time: 3-4 hours	0.24	1.46	91
concentration: 8.8 (µM), S9 metabolic activation: without S9, exposure time: 24 hours	0.4	1.3	110
concentration: 11 (µM), S9 metabolic activation: with S9, exposure time: 3-4 hours	0.12	1.1	90.8
concentration: 11 (µM), S9 metabolic activation: without S9, exposure time: 24 hours	0.74	1.28	126
concentration: 13.7 (µM), S9 metabolic activation: with S9, exposure time: 3-4 hours	0.22	1.02	93.3
concentration: 13.7 (µM), S9 metabolic activation: without S9, exposure time: 24 hours	0.6	1.68	106
concentration: 17.2 (µM), S9 metabolic activation: with S9, exposure time: 3-4 hours	0.18	1.76	79.7
concentration: 17.2 (µM), S9 metabolic activation: without S9, exposure time: 24 hours	0.62	1.8	114
concentration: 21.5 (µM), S9 metabolic activation: with S9, exposure time: 3-4 hours	0.18	1.36	77
concentration: 21.5 (µM), S9 metabolic activation: without S9, exposure time: 24 hours	0.58	1.18	99.6
concentration: 26.8 (µM), S9 metabolic activation: with S9, exposure time: 3-4 hours	0.46	2.52	89.9
concentration: 26.8 (µM), S9 metabolic activation: without S9, exposure time: 24 hours	1.18	2.26	84.6
concentration: 33.6 (µM), S9 metabolic activation: with S9, exposure time: 3-4 hours	0.23	0.94	69.4
concentration: 33.6 (µM), S9 metabolic activation: without S9, exposure time: 24 hours	0.88	3.04	73
concentration: 41.9 (µM), S9 metabolic activation: with S9, exposure time: 3-4 hours	0.1	1.01	53.5
concentration: 41.9 (µM), S9 metabolic activation: without S9, exposure time: 24 hours	0.72	2.04	59.7
concentration: 52.4 (µM), S9 metabolic activation: with S9, exposure time: 3-4 hours	0.14	1.15	45
concentration: 52.4 (µM), S9 metabolic activation: without S9, exposure time: 24 hours	1.6	2.94	74.6
concentration: 65.5 (µM), S9 metabolic activation: with S9, exposure time: 3-4 hours	0.29	1.06	40.2
concentration: 65.5 (µM), S9 metabolic activation: without S9, exposure time: 24 hours	1.28	1.62	55.1
concentration: 81.9 (µM), S9 metabolic activation: with S9, exposure time: 3-4 hours	0.1	0.57	50
concentration: 81.9 (µM), S9 metabolic activation: without S9, exposure time: 24 hours	3.12	4.48	61
concentration: 102 (µM), S9 metabolic activation: with S9, exposure time: 3-4 hours	–	–	37.5
concentration: 102 (µM), S9 metabolic activation: without S9, exposure time: 24 hours	6.4	5.48	51.1
concentration: 128 (µM), S9 metabolic activation: with S9, exposure time: 3-4 hours	0.08	2.68	50.1
concentration: 128 (µM), S9 metabolic activation: without S9, exposure time: 24 hours	10.2	9.72	42
concentration: 160 (µM), S9 metabolic activation: with S9, exposure time: 3-4 hours	0.31	6.25	41.5
concentration: 160 (µM), S9 metabolic activation: without S9, exposure time: 24 hours	–	–	23.4
concentration: 200 (µM), S9 metabolic activation: without S9, exposure time: 24 hours	–	–	1.44

CCCCCCc1ccc(O)cc1O [4-Hexylresorcinol]
Conditions	hypodiploid nuclei frequency, CHO-K1 [3] [%]	micronucleus frequency, CHO-K1 [2] [%]	relative survival, CHO-K1 [1]
concentration: 4.5 (µM), S9 metabolic activation: with S9, exposure time: 3-4 hours	0.16	0.56	107
concentration: 4.5 (µM), S9 metabolic activation: without S9, exposure time: 24 hours	5.68	3.94	118
concentration: 5.63 (µM), S9 metabolic activation: with S9, exposure time: 3-4 hours	0.32	1.16	92.2
concentration: 5.63 (µM), S9 metabolic activation: without S9, exposure time: 24 hours	11.2	7.86	109
concentration: 7.04 (µM), S9 metabolic activation: with S9, exposure time: 3-4 hours	0.18	1.04	92.7
concentration: 7.04 (µM), S9 metabolic activation: without S9, exposure time: 24 hours	17.8	14.3	100
concentration: 8.8 (µM), S9 metabolic activation: with S9, exposure time: 3-4 hours	0.24	0.84	99.7
concentration: 8.8 (µM), S9 metabolic activation: without S9, exposure time: 24 hours	25.2	24.7	82.9
concentration: 11 (µM), S9 metabolic activation: with S9, exposure time: 3-4 hours	0.36	0.88	102
concentration: 11 (µM), S9 metabolic activation: without S9, exposure time: 24 hours	31.4	32.7	67.1
concentration: 13.7 (µM), S9 metabolic activation: with S9, exposure time: 3-4 hours	0.38	0.76	115
concentration: 13.7 (µM), S9 metabolic activation: without S9, exposure time: 24 hours	33	35.5	59.4
concentration: 17.2 (µM), S9 metabolic activation: with S9, exposure time: 3-4 hours	0.46	0.86	100
concentration: 17.2 (µM), S9 metabolic activation: without S9, exposure time: 24 hours	29.4	40.4	51.5
concentration: 21.5 (µM), S9 metabolic activation: with S9, exposure time: 3-4 hours	0.22	0.9	91.7
concentration: 21.5 (µM), S9 metabolic activation: without S9, exposure time: 24 hours	25	44.7	45.3
concentration: 26.8 (µM), S9 metabolic activation: with S9, exposure time: 3-4 hours	0.28	1.26	85.3
concentration: 26.8 (µM), S9 metabolic activation: without S9, exposure time: 24 hours	–	–	31.6
concentration: 33.6 (µM), S9 metabolic activation: with S9, exposure time: 3-4 hours	0.3	1.34	72.7
concentration: 33.6 (µM), S9 metabolic activation: without S9, exposure time: 24 hours	–	–	29.4
concentration: 41.9 (µM), S9 metabolic activation: with S9, exposure time: 3-4 hours	0.14	1.6	63.5
concentration: 41.9 (µM), S9 metabolic activation: without S9, exposure time: 24 hours	–	–	26.5
concentration: 52.4 (µM), S9 metabolic activation: with S9, exposure time: 3-4 hours	0.3	1.54	68.8
concentration: 52.4 (µM), S9 metabolic activation: without S9, exposure time: 24 hours	–	–	30
concentration: 65.5 (µM), S9 metabolic activation: with S9, exposure time: 3-4 hours	0.2	1.68	51.4
concentration: 65.5 (µM), S9 metabolic activation: without S9, exposure time: 24 hours	–	–	23.8
concentration: 81.9 (µM), S9 metabolic activation: with S9, exposure time: 3-4 hours	0.38	1.44	57.1
concentration: 81.9 (µM), S9 metabolic activation: without S9, exposure time: 24 hours	–	–	17.4
concentration: 102 (µM), S9 metabolic activation: with S9, exposure time: 3-4 hours	0.38	1.38	55.3
concentration: 102 (µM), S9 metabolic activation: without S9, exposure time: 24 hours	–	–	9.13
concentration: 128 (µM), S9 metabolic activation: with S9, exposure time: 3-4 hours	0.22	1.08	65.2
concentration: 128 (µM), S9 metabolic activation: without S9, exposure time: 24 hours	–	–	11.4
concentration: 160 (µM), S9 metabolic activation: with S9, exposure time: 3-4 hours	0.36	2.24	50
concentration: 160 (µM), S9 metabolic activation: without S9, exposure time: 24 hours	–	–	10.8
concentration: 200 (µM), S9 metabolic activation: with S9, exposure time: 3-4 hours	–	–	19.3
concentration: 200 (µM), S9 metabolic activation: without S9, exposure time: 24 hours	–	–	13.5
